Test results as given in paper PMC6989696, “Arginine π-stacking drives binding to fibrils of the Alzheimer protein Tau” (Nature Communications, 2020).

Legend:
[1] = biological target: T1, HA-tagged mouse Map7 M1-S227, wild type (mouse, UniProt O88735 1-227); assay: co-sedimentation; Tau-RD* fibrils (20 µM of monomers, timepoint 24 h) reacted 1 h at 37 °C with 0.5 µM HA-Map7 M1-S227 in aggregation buffer; sucrose density gradient, 2.5 h at 200,000×g; dot blot with anti-HA and anti-FLAG; details: both partners purified
T1 construct: Map7, mouse, N-terminal truncation M1-S227; also called Map7 wt; HA-Map7 M1-S227; source: E. coli BL21 Rosetta 2, purified (Ni-IDA, cation exchange); not shown: HA, N-terminal, kept; His6-Smt, N-terminal, cleaved
T1 sequence (looked up): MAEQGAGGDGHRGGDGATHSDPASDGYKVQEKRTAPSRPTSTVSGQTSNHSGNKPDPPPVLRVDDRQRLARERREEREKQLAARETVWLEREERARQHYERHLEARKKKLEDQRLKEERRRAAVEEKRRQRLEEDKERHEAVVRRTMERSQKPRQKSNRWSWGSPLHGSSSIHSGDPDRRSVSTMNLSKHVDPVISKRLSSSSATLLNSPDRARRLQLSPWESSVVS

[2] = biological target: the molecule itself; assay: sucrose density gradient centrifugation; Tau-RD* (37 µM of monomers) aggregated with heparin (Tau:heparin 4:1) at 37 °C for 1, 8, 24 h; 10-40% sucrose gradient; 2.5 h at 200,000×g; 12 fractions, dot blot with anti-FLAG

binding result [1]: binds
B1: FLAG-tagged Tau-RD-ΔK280 (human Tau Repeat Domain, […]) (domain or fragment)
chain: not shown
notes: Tau repeat domain (K18), human, […], with the pro-aggregation mutation ΔK280; the assay tells which state; also called K18; Tau fibrils; source: E. coli BL21 Rosetta 2, purified (POROS 20MC, cation exchange, SEC); not shown: FLAG, N-terminal, kept; His6-Smt, N-terminal, cleaved
binding result [2]: binds
